Reference: the antibiotic and cytotoxicity screens of Wong et al. (2023)
This is one part of the list.

Tests used:
[1] = test system: HSkMC (human skeletal muscle cells); assay: cytotoxicity call (relative viability < 0.9); conditions: 10 µM
[2] = test system: HepG2; assay: cytotoxicity call (relative viability < 0.9); conditions: 10 µM
[3] = test system: S. aureus RN4220; assay: growth inhibition call (relative growth <= 0.2); conditions: 50 µM

O=C(C[C@@H]1CC[C@@H]2[C@H](COC[C@@H](O)CN2S(=O)(=O)c2ccccc2)O1)NCCN1CCCC1
inactive: cytotoxicity call [1] | cytotoxicity call [2] | growth inhibition call [3]

O=C(C[C@@H]1CC[C@H](NC(=O)Cc2ccccn2)[C@@H](CO)O1)NCCc1ccncc1
inactive: cytotoxicity call [1] | cytotoxicity call [2] | growth inhibition call [3]

C[C@@H]1CCCCO[C@@H](CN(C)C(=O)Nc2cccc3ccccc23)[C@@H](C)CN([C@@H](C)CO)C(=O)c2cc(N(C)C)ccc2O1
inactive: cytotoxicity call [1] | cytotoxicity call [2] | growth inhibition call [3]

C[C@H](CO)N1C[C@H](C)[C@H](CN(C)C(=O)Nc2ccccc2)OCCCC[C@H](C)Oc2ccc(NC(=O)Nc3ccc(F)cc3)cc2C1=O
inactive: cytotoxicity call [1] | cytotoxicity call [2] | growth inhibition call [3]

C[C@@H]1CN([C@H](C)CO)C(=O)c2c(c3ccccc3n2C)-c2ccccc2CO[C@@H]1CN(C)C(=O)Nc1cccc(F)c1
inactive: cytotoxicity call [1] | cytotoxicity call [2] | growth inhibition call [3]

C[C@@H]1CN([C@@H](C)CO)C(=O)Cc2cc(NC(=O)Nc3ccc4c(c3)OCO4)ccc2O[C@@H]1CN(C)S(C)(=O)=O
inactive: cytotoxicity call [1] | cytotoxicity call [2] | growth inhibition call [3]

COc1ccccc1CNC(=O)C[C@H]1C[C@@H]2c3cc(NC(=O)c4ccc5c(c4)OCO5)ccc3O[C@@H]2[C@H](CO)O1
inactive: cytotoxicity call [1] | cytotoxicity call [2] | growth inhibition call [3]

C[C@H](CO)N1C[C@H](C)[C@H](CN(C)S(C)(=O)=O)Oc2cc(-c3ccc(F)cc3)ccc2S1(=O)=O
inactive: cytotoxicity call [1] | cytotoxicity call [2] | growth inhibition call [3]

COc1ccc(NC(=O)N(C)C[C@@H]2OCCCC[C@@H](C)Oc3ccc(NC(=O)Nc4cccc5ccccc45)cc3C(=O)N([C@@H](C)CO)C[C@H]2C)cc1
inactive: cytotoxicity call [1] | cytotoxicity call [2] | growth inhibition call [3]
